From patent US8633031B2, “Expression quantification using mass spectrometry” (DH Technologies Development Pte. Ltd., priority 2004, dated 2014) come the findings set out here.

In one data set the test system is Cyp4a10/Cyp4a14. As to the kind of experiment: Example 1: MRM quantitation of P450 expression in liver microsomes, phenobarbital induced vs control. As to conditions: ratio of phenobarbital induced (IND) to control (CT) mouse liver microsomes, average of 4 experiments. In general terms: Liver microsomes are vesicles of endoplasmic reticulum, rich in cytochrome P450 enzymes.

For data set [1], the system named is Cyp2c29/Cyp2c37. The experiment in a line: Example 2: MRM of combined light/heavy ICAT labeled control and phenobarbital induced liver microsomes. The note with it: Cyp2c29/Cyp2c37, based on MRM peak areas, FIG. 6.
For another data set, the system named is Cyp2d22/Cyp2d26. The experiment in a line: Example 1: MRM quantitation of P450 expression in liver microsomes, phenobarbital induced vs control. The note with it: ratio of phenobarbital induced (IND) to control (CT) mouse liver microsomes, average of 4 experiments.
For data set [2], the system named is Cyp2c29/Cyp2c37. The data set is described as above.

SMILES strings stand for the structures.

Turning to `CCC1(c2ccccc2)C(=O)NC(=O)NC1=O` [phenobarbital], the IND/CT with Cyp4a10/Cyp4a14 came out at 11.61; with Cyp2d22/Cyp2d26 it was 10.90. The “increase in expression of the induced sample over the control sample” value in the data set on Cyp2c29/Cyp2c37 [1] is reported as ~3 fold. For the same molecule, the “increase in expression upon drug treatment over control” value in the data set with Cyp2c29/Cyp2c37 [2] (Cyp2c29/Cyp2c37, Example 1, mouse liver microsomes) was “about 3 fold”. Further, in the data set with Cyp2c29/Cyp2c37 [2] (Cyp2c29/Cyp2c37, qualitative change in IND samples relative to CT, mouse liver microsomes), the Change result is “up”.
